Read-outs that look alike come from different tables or passages of the source.
Tests used:
Type in all cases: cell-based, Clostridium difficile strain 630
C. difficile spores [1] = assay: Activation of C. difficile spore germination by taurocholate / bile salt analogs; conditions: for germination relative to taurocholate: taurocholate/glycine = 100%; for activation of spore germination by taurocholate analog: in the presence of glycine, in buffer
C. difficile spores [2] = assay: Inhibition of C. difficile spore germination by amino acid and taurocholate analogs; conditions: for inhibition of taurocholate-mediated spore germination by taurocholate analog: spores treated with taurocholate and glycine
C. difficile spores [3] = assay: Activation of C. difficile spore germination by amino acid analogs with taurocholate; conditions: 12 mM analog with 6 mM taurocholate
[4] = Clostridioides difficile, read-out: IC50 of inhibition of C. difficile spore germination

Compound | inhibition of taurocholate-mediated spore germination by taurocholate analog (C. difficile spores [2]) | activation of spore germination by taurocholate analog (C. difficile spores [1]) | other results
C[C@H](CCC(=O)NCCS(=O)(=O)O)[C@H]1CC[C@H]2[C@@H]3[C@@H](O)C[C@@H]4C[C@H](O)CC[C@]4(C)[C@H]3CC[C@]12C [Compound T04, tauroursodeoxycholate, reference compound] | showed germination inhibitory properties |  | germination relative to taurocholate (C. difficile spores [1]; 6 mM analog and 12 mM glycine): 3%
C[C@H](CCC(=O)NCCCC(=O)NCCCC(=O)O)[C@H]1CC[C@H]2[C@@H]3[C@H](O)C[C@@H]4C[C@H](O)CC[C@]4(C)[C@H]3C[C@H](O)[C@]12C [Compound T21, 8-[(3α,7α,12α-trihydroxy-24-oxo-5β-cholan-24-yl)amino]-(5-amido)octanecarboxylic acid] |  | inactive | IC50 (C. difficile spores [2]; spores treated with taurocholate (6 mM) and glycine (12 mM), read-out: IC50 of inhibition of C. difficile spore germination): ~3000 µM
COC(=O)CN [Compound A05, glycine methyl ester] |  |  | germination rate compared to glycine-triggered germination (C. difficile spores [3]): less than 10%
CO[C@@H]1CC[C@@]2(C)[C@@H](C1)C[C@@H](OC)[C@@H]1[C@@H]2C[C@H](O)[C@]2(C)[C@@H]([C@H](C)CCC(=O)NCCS(=O)(=O)O)CC[C@@H]12 [Compound T10, 3,7-dimethoxy-12-hydroxytaurocholate] | inactive | inactive | 
COC1CC[C@@]2(C)[C@@H](C1)CC(O)[C@@H]1[C@@H]2CC(O)[C@]2(C)[C@@H]([C@H](C)CCC(=O)NCCS(=O)(=O)O)CC[C@@H]12 (stereo partly drawn) [Compound T09, 3-methoxy-7,12-dihydroxytaurocholate] | neither induces nor inhibits | neither induces nor inhibits | 
C[C@H](CCC(=O)Nc1cccc(S(=O)(=O)O)c1)[C@H]1CC[C@H]2[C@@H]3[C@H](O)C[C@@H]4C[C@H](O)CC[C@]4(C)[C@H]3C[C@H](O)[C@]12C [CamSA, 3-[(3α,7α,12α-trihydroxy-24-oxo-5β-cholan-24-yl)amino]benzenesulfonic acid] | strong inhibition | unable to activate | IC50 (C. difficile spores [2]; [4]): 58.3 µM; active concentration relative to taurocholate (C. difficile spores [2]; lower than taurocholate): approximately 275 fold; activity relative to natural inhibitor chenodeoxycholate (C. difficile spores [2]; more active than chenodeoxycholate): ~4 times
C[C@H](CCC(=O)NCS(=O)(=O)O)[C@H]1CC[C@H]2[C@@H]3[C@H](O)C[C@@H]4C[C@H](O)CC[C@]4(C)[C@H]3C[C@H](O)[C@]12C [Compound T11, 1-[(3α,7α,12α-trihydroxy-24-oxo-5β-cholan-24-yl)amino]methanesulfonic acid] | unable to inhibit germination | germinate to levels comparable with spores treated with taurocholate | 
C[C@H](CCC(=O)NCCS(=O)(=O)O)[C@H]1CC[C@H]2[C@@H]3CC[C@@H]4C[C@H](O)CC[C@]4(C)[C@H]3C[C@H](O)[C@]12C [Compound T02, taurodeoxycholate, reference compound] |  |  | reduction of germination compared with taurocholate (C. difficile spores [1]; 6 mM analog and 12 mM glycine): more than 70%
C[C@H](CCC(=O)NCCS(=O)(=O)O)C1CC[C@H]2[C@@H]3C[C@H](O)[C@@H]4C[C@H](O)CC[C@]4(C)[C@H]3CC[C@]12C (stereo partly drawn) [Compound T08, taurohyodeoxycholate, reference compound] | showed germination inhibitory properties | Neither of these compounds is able to significantly activate | 
C[C@H](CCC(=O)NCCS(=O)O)[C@H]1CC[C@H]2[C@@H]3[C@H](O)C[C@@H]4C[C@H](O)CC[C@]4(C)[C@H]3C[C@H](O)[C@]12C [Compound T16, 2-[(3α,7α,12α-trihydroxy-24-oxo-5β-cholan-24-yl)amino]ethanesulfinic acid] |  | unable to activate | IC50 (C. difficile spores [2]; [4]): 640 µM
C[C@H](CCC(=O)OCCS(=O)(=O)O)[C@H]1CC[C@H]2[C@@H]3[C@H](O)C[C@@H]4C[C@H](O)CC[C@]4(C)[C@H]3C[C@H](O)[C@]12C [Compound T22, 2-[(3α,7α,12α-trihydroxy-5β-cholan-24-oyl)oxy]ethanesulfonic acid] |  | unable to trigger germination | IC50 (C. difficile spores [2]; [4]): 1320 µM
C[C@H](CCC(=O)NCC(=O)O)[C@H]1CC[C@H]2[C@@H]3[C@H](O)C[C@@H]4C[C@H](O)CC[C@]4(C)[C@H]3C[C@H](O)[C@]12C [Compound T17, 3α,7α,12α-Trihydroxy-5β-cholan-24-oic acid N-(carboxymethyl)amide, reference compound] |  | able to significantly activate | 
C[C@H](CCC(=O)Nc1ccc(S(=O)(=O)O)cc1)[C@H]1CC[C@H]2[C@@H]3[C@H](O)C[C@@H]4C[C@H](O)CC[C@]4(C)[C@H]3C[C@H](O)[C@]12C [Compound T13, 4[(3α,7α,12α-trihydroxy-24-oxo-5β-cholan-24-yl)amino]benzenesulfonic acid] | does not inhibit spore germination | unable to activate | 
C[C@H](CCC(=O)NCCS(=O)(=O)O)[C@H]1CC[C@H]2[C@@H]3[C@H](O)[C@H](O)[C@@H]4C[C@H](O)CC[C@]4(C)[C@H]3CC[C@]12C [Compound T07, taurohycholate, reference compound] |  | Neither of these compounds is able to significantly activate | 
C[C@H](CCC(=O)NCCC(=O)O)[C@H]1CC[C@H]2[C@@H]3[C@H](O)C[C@@H]4C[C@H](O)CC[C@]4(C)[C@H]3C[C@H](O)[C@]12C [Compound T18, 2-[(3α,7α,12α-trihydroxy-24-oxo-5β-cholan-24-yl)amino]ethancarboxylic acid] |  | inactive | 
C[C@H](CCC(=O)NCCC(N)CCCC(=O)O)[C@H]1CC[C@H]2[C@@H]3[C@H](O)C[C@@H]4C[C@H](O)CC[C@]4(C)[C@H]3C[C@H](O)[C@]12C (stereo partly drawn) [Compound T19, 6-[(3α,7α,12α-trihydroxy-24-oxo-5β-cholan-24-yl)amino]-(4-amino)hexanecarboxylic acid] |  | inactive | 
C[C@H](CCC(=O)NCCCS(=O)(=O)O)[C@H]1CC[C@H]2[C@@H]3[C@H](O)C[C@@H]4C[C@H](O)CC[C@]4(C)[C@H]3C[C@H](O)[C@]12C [Compound T12, 3-[(3α,7α,12α-trihydroxy-24-oxo-5β-cholan-24-yl)amino]propanesulfonic acid] | unable to inhibit germination | does not activate germination | 
C[C@H](CCC(=O)NCCS(=O)(=O)O)[C@H]1CC[C@H]2[C@@H]3[C@H](O)C[C@@H]4C[C@H](O)CC[C@]4(C)[C@H]3CC[C@]12C [Compound T03, taurochenodeoxycholate, reference compound] | showed germination inhibitory properties |  | germination relative to taurocholate (C. difficile spores [1]; 6 mM analog and 12 mM glycine): 10%
C[C@H](CCC(=O)NCCCC(=O)O)[C@H]1CC[C@H]2[C@@H]3[C@H](O)C[C@@H]4C[C@H](O)CC[C@]4(C)[C@H]3C[C@H](O)[C@]12C [Compound T20, 3-[(3α,7α, 12α-trihydroxy-24-oxo-5β-cholan-24-yl)amino]propanecarboxylic acid] |  | inactive | IC50 (C. difficile spores [2]; [4]): 762 µM
C[C@H](CCC(=O)NCCS(=O)(=O)O)[C@H]1CC[C@H]2[C@@H]3CC[C@@H]4C[C@H](O)CC[C@]4(C)[C@H]3CC[C@]12C [Compound T05, taurolithocholate, reference compound] |  | unable to activate germination | 
taurocholanate [Compound T06, reference compound] |  | unable to activate germination | 
C[C@H](CCC(=O)NCCCCCC(=O)O)[C@H]1CC[C@H]2[C@@H]3[C@H](O)C[C@@H]4C[C@H](O)CC[C@]4(C)[C@H]3C[C@H](O)[C@]12C [Compound 16] |  |  | IC50 (C. difficile spores [2]; spores incubated with bile salt analogs 15 min prior to 6 mM taurocholate and 12 mM glycine, NA = no change in absorbance after 90 minutes, read-out: IC50 (stdev)): 2300 µM
CC(C)[C@H](N)C(=O)O [Compound A20, L-valine] |  |  | reduction of spore germination compared to L-norvaline (C. difficile spores [3]): more than 90%

Source: patent USRE49949E1, “Reducing risk of contracting clostridium-difficile associated disease” (The Board of Regents of the Nevada System of Higher …, priority 2012, dated 2024)
